According to publication PMC3517901:
Results are given in words; binding and its absence hold for the method and conditions named. Binding seen in cells or lysates may run through a third protein. Some entries that bind do so weakly or less than the wild type. For part of these data: Where a sequence is shown, tags or fusion partners need not be part of it.

Amino acid sequences for entries named in this document (tags omitted). A change or cut given only in a name is not applied to a line headed by its entry. Chains listed by the source or under a name are the forms on record and can include a tag or linker. Residues count along the entry.
UniProt P49815: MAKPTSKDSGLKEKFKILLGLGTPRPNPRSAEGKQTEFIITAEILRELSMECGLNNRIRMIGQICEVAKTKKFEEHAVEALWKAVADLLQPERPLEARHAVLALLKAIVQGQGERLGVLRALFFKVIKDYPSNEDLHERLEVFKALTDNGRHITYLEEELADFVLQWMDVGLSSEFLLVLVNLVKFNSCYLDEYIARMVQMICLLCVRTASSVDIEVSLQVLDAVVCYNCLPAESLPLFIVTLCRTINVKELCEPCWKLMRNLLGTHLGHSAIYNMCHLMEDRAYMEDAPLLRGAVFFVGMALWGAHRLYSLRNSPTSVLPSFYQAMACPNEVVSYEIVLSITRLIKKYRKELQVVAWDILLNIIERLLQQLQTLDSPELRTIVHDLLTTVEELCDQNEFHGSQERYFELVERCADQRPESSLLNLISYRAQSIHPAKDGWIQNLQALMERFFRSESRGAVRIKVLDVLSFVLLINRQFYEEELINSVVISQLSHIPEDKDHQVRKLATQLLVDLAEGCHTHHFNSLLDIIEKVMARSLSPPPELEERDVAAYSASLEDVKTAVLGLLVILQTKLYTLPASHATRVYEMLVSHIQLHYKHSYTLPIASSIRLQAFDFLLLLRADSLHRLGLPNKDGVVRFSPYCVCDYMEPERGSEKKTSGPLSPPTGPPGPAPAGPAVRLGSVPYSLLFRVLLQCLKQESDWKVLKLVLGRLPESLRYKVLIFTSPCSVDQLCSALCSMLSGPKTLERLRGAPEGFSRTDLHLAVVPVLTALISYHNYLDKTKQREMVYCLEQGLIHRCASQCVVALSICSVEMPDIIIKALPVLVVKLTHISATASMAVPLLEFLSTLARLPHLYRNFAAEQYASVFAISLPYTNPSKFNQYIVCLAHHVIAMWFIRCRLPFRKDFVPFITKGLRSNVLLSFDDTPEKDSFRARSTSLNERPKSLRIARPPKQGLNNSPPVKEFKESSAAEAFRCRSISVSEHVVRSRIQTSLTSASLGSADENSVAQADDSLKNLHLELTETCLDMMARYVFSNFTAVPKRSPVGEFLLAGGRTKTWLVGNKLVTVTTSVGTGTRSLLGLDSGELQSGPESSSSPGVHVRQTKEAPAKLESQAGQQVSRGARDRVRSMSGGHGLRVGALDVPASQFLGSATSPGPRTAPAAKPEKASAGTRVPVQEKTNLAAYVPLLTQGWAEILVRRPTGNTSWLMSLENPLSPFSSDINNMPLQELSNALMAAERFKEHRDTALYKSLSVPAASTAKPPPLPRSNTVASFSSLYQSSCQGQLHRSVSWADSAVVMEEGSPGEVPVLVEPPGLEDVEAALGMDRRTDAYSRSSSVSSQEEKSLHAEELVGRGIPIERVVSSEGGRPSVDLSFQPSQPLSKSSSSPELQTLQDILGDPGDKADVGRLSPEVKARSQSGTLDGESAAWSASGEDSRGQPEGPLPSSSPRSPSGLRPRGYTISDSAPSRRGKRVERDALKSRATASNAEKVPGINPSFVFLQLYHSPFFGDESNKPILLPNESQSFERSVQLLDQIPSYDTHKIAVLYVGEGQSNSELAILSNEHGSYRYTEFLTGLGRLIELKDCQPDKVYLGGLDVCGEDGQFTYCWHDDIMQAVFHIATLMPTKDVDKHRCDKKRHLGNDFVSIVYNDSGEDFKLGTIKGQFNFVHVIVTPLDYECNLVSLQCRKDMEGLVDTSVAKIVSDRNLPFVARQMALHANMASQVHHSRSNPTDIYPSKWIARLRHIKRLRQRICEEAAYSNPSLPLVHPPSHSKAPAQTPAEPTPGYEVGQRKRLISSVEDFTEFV
TSC2 A1153V5 (TSC2 amino acids 1-1153): residues 1-1153 of P49815
TSC2 F904V5 (TSC2 amino acids 1-904): residues 1-904 of P49815
TSC2 A614V5 (TSC2 amino acids 1-614): residues 1-614 of P49815
TSC2 M1453V5 (TSC2 amino acids 1453-1784): residues 1476-1807 of P49815
V5-tagged full-length TSC2 (P49815-4, form named): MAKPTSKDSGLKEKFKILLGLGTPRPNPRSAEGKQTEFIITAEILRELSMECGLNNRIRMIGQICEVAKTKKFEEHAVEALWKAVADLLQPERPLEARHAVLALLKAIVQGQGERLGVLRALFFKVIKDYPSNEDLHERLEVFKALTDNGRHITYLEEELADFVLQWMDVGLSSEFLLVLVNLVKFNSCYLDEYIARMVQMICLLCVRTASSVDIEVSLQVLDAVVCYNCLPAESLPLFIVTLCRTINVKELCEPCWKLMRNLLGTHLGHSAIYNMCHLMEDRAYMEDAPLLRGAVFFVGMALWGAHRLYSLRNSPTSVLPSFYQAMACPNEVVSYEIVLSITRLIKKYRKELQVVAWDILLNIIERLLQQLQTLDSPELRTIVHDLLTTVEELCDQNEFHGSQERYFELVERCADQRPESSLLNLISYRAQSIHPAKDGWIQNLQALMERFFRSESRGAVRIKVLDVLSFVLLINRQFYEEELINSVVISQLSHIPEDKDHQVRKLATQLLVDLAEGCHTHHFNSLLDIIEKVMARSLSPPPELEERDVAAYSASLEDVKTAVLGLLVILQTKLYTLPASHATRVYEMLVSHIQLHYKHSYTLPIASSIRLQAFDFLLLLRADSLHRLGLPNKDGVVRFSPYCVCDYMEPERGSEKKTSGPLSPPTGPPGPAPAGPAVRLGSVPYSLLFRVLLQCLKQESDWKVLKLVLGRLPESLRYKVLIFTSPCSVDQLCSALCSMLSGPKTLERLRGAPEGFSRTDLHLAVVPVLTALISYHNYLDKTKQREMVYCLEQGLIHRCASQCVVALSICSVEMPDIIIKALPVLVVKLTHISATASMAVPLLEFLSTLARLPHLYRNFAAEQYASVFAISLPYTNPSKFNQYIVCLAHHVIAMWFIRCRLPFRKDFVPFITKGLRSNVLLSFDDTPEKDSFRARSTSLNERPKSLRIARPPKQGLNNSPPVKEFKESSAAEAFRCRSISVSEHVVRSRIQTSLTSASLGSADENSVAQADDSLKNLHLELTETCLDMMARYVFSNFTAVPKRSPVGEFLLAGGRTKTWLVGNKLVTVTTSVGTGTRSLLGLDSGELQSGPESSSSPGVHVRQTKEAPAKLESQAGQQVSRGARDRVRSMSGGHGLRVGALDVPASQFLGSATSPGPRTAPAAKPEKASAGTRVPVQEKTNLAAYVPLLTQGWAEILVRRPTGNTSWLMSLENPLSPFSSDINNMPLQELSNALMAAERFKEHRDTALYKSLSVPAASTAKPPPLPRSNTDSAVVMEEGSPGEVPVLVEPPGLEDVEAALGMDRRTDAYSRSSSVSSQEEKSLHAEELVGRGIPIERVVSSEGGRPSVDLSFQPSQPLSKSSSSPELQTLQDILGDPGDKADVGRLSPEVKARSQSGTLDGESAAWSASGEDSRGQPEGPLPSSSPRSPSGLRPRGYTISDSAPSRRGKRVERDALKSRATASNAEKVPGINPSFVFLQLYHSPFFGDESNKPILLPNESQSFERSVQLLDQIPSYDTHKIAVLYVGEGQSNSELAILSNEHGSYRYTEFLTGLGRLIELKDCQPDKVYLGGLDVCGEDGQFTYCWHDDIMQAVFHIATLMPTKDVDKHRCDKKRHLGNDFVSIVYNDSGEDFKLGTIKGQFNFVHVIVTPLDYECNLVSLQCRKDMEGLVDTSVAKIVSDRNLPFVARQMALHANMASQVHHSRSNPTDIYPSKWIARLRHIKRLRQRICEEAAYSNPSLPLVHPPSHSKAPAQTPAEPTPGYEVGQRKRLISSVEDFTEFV
TSC2 M1028V5 (TSC2 amino acids 1028-1784) (P49815-4, form named): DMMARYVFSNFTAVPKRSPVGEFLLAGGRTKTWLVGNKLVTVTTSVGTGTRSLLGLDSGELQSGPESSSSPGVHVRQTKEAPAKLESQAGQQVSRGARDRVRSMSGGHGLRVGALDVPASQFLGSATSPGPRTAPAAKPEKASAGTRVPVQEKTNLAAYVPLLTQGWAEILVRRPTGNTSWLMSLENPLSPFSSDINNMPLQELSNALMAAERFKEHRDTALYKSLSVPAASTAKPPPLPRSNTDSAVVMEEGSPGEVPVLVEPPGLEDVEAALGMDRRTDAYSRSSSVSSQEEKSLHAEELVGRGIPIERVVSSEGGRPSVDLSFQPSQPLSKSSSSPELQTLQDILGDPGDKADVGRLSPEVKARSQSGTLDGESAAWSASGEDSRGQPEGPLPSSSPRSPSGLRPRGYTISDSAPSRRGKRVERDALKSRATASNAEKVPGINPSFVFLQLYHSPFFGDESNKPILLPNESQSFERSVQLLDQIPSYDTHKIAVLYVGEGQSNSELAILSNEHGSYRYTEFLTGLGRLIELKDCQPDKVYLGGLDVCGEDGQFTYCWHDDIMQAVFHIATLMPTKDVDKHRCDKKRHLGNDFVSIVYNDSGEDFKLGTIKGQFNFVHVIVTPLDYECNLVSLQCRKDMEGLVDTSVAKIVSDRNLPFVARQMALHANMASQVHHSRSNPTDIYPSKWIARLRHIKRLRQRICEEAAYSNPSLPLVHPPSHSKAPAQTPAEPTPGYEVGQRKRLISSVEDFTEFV
GFPTSC2 containing the R611Q pathogenic substitution (P49815-4, form named): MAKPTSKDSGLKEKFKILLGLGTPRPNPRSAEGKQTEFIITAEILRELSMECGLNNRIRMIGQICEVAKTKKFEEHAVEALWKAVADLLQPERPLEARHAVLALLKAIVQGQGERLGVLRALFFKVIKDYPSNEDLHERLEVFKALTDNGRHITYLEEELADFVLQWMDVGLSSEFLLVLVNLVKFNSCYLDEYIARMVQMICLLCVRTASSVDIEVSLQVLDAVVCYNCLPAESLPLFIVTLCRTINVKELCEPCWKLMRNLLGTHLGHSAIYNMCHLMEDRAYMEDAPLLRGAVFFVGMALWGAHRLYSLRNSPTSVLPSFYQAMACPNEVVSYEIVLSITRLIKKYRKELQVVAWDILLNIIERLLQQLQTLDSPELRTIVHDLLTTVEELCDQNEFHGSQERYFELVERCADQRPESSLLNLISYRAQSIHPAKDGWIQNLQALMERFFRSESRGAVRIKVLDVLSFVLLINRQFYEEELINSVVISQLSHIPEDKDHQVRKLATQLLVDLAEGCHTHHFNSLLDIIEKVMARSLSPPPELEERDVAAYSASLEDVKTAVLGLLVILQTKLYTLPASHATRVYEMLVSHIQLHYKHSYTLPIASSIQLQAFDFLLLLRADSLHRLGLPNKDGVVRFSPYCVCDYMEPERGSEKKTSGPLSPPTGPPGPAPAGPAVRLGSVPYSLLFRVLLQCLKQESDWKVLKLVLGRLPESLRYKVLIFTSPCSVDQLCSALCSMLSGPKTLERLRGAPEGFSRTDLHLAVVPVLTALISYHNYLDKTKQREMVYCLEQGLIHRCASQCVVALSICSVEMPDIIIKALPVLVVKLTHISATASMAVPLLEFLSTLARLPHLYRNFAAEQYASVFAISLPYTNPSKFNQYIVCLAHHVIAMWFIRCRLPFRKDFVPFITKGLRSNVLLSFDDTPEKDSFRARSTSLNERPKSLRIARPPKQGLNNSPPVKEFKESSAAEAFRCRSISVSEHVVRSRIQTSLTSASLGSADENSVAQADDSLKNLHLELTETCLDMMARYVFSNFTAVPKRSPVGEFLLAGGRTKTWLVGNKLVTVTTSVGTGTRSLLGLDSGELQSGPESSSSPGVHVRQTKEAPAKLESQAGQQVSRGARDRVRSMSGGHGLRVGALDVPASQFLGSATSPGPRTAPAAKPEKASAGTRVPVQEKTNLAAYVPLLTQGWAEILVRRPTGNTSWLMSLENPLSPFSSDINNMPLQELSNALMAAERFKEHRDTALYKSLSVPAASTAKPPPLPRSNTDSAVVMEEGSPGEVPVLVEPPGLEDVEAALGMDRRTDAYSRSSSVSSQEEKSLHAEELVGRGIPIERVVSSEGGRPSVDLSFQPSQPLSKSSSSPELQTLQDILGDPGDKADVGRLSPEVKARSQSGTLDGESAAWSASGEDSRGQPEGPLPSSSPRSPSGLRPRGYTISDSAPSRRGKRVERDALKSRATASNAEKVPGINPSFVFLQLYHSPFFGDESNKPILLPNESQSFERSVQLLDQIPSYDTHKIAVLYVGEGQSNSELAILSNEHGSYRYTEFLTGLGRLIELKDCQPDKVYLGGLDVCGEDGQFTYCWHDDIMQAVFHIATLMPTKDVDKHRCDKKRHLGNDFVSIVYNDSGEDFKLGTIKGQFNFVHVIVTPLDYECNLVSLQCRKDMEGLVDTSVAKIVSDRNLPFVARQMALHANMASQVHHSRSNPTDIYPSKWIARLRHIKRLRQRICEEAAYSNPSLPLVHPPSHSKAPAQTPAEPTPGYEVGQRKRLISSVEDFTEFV

Experiments:
Assay in all cases: co-IP; HEK 293T cells transfected with tagged constructs, with or without co-expressed TSC1; lysis in 50 mM HEPES pH 7.5, 10% glycerol, 1 mM DTT, 100 mM NaCl, 0.1% Triton X100; anti-V5 or anti-myc affinity beads, or anti-Xpress / anti-TSC2 with Protein A/G beads, 4°C; immunoblot
[1] = target: N-terminal Xpress epitope tagged TSC2 (UniProt P49815)
[2] = target: TSC2 A1153V5 (TSC2 amino acids 1-1153) (UniProt P49815)
[3] = target: T1, TSC1 tagged with a C-terminal V5 epitope (UniProt Q92574)
T1 sequence: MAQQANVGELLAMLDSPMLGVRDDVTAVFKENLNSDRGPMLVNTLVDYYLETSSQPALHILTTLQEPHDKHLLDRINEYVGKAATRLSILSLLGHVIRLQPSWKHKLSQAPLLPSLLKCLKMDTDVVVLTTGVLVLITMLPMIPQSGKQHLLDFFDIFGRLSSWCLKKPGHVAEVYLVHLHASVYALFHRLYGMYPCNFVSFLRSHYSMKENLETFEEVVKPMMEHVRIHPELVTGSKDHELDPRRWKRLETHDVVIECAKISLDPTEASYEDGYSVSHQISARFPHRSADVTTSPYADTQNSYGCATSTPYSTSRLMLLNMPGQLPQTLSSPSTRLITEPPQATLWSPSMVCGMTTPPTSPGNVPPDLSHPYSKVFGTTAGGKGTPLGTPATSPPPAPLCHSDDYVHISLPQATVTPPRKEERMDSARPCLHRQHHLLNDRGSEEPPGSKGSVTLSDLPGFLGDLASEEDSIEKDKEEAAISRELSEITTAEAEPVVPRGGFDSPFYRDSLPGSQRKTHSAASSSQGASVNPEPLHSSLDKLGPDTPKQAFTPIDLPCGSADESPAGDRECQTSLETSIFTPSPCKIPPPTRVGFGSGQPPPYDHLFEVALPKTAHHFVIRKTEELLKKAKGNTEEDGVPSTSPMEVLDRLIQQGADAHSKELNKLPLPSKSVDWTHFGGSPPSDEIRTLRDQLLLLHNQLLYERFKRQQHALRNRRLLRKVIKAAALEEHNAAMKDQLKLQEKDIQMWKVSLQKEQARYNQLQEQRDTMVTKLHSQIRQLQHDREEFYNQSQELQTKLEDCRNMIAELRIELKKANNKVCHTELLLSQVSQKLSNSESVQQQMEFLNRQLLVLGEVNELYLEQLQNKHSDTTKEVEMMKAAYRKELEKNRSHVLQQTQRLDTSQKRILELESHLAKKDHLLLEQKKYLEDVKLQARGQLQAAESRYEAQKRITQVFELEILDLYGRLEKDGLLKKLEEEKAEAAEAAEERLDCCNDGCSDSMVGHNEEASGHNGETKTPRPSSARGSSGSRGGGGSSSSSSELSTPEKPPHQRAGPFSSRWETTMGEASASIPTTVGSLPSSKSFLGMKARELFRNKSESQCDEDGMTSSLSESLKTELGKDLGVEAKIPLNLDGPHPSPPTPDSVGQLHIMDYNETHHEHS

[4] = target: TSC2 F904V5 (TSC2 amino acids 1-904) (UniProt P49815)
[5] = target: TSC2 A614V5 (TSC2 amino acids 1-614) (UniProt P49815)
[6] = target: TSC2 M1028V5 (TSC2 amino acids 1028-1784) (UniProt P49815)
[7] = target: T2, TSC1 tagged with a C-terminal myc epitope (UniProt Q92574)
T2 sequence: T1 sequence

[8] = target: TSC2 M1453V5 (TSC2 amino acids 1453-1784) (UniProt P49815)
[9] = target: V5-tagged full-length TSC2 (UniProt P49815)
[10] = target: TSC2, untagged, full-length (transfected) (UniProt P49815)

For “V5-tagged full-length TSC2 (from UniProt P49815-4 1-1784)”, the binding [1] was “binds”.
“TSC2, untagged, full-length (transfected) (from UniProt P49815-4 1-1784)” was tested, and the binding [2] was “binds”, the binding [3] was “binds” and the binding [4] was “binds”. For the same substance, the binding [5] was “binds”, the binding [6] was “binds” and the binding [7] was “binds”. The binding [8] was “binds”.
In the case of “GFPTSC2 containing the R611Q pathogenic substitution (from UniProt P49815-4 1-1784)”, the binding [9] was “binds”.
For “TSC2 A1153V5 (TSC2 amino acids 1-1153) (from UniProt P49815-4 1-1153) (domain or fragment)”, the binding [6] was “binds”, the binding [10] was “binds” and the binding [8] was “binds”.
“GFP-tagged TSC2 (from UniProt P49815-4 1-1784)” was tested, and the binding [9] was “binds”.
In the case of “GFPTSC2 containing the N1620S pathogenic substitution (from UniProt P49815-4 1-1784)”, the binding [9] was “binds”.
In the case of “GFPTSC2 containing the R905Q pathogenic substitution (from UniProt P49815-4 1-1784)”, the binding [9] was “binds”.
